Target: T1, Recombinant Ad2 penton base (adenovirus type 2 (Ad2), UniProt P03276)
T1 construct: also called penton base protein
Experiment: ELISA, immobilized penton base

B1: DT bifunctional signaling antibody (DAV-1 fused to TNF-alpha) (bispecific antibody)
heavy: EVQLQQSGPELVKPGASVKISCKASGYTFTDYNMHWVKQSHGKSLEWIGYIYPYKGGTGYNQKFKSKATLTTDSSSNTAYMELRSLTSDASAVYYCARGIAYWGQGTLVTVSAAKTTPPSVYPLAPGSAAQTNSMVTLGCLVKGYFPEPVTVTWNSGSLSSGVHTFPAVLQSDLYTLSSSVTVPSSTWPSETVTCNVAHPASSTKVDKKIVPRDCGCKPCICTVPEVSSVFIFPPKPKDVLTITLTPKVTCVVVDISKDDPEVQFSWFVDDVEVHTAQTQPREEQFNSTFRSVSELPIMHQDWLNGKEFKCRVNSAAFPAPIEKTISKTKGRPKAPQVYTIPPPKEQMAKDKVSLTCMITDFFPEDITVEWQWNGQPAENYKNTQPIMDTDGSYFVYSKLNVQKSNWEAGNTFICSVLHEF[skipping about 150 residues]
light: DIVLTQSPASLAVSLGQRATISCKASQSVDYDGDSYMNWYQQKPGQPPKLLIYAASNLESGIPARFSGSGSGTDFTLNIHPVEEEDAATYYCQQTNEDPWTFGGGTKLEIKRADAAPTVSIFPPSSEQLTSGGASVVCFLNNFYPKDINVKWKIDGSERQNGVLNSWTDQDSKDSTYSMSSTLTLTKDEYERHNSYTCEATHKTSTSPIVKSFNRNEC
notes: Secreted from SF9 insect cells and purified on Protein L; also called DT molecule; DAV-TNF
binding result: binds
